No constants are given. Whether binding was seen depends on the method and setting. Some binding calls cover weakened binding; strength is not graded here. Tags and fused reporters may be left off the sequences shown. Blank lines part the entries; values can stand above or below the binder they belong to.
Experiments:
[1] = target: ATP1A3 expressed alone in HEK293 (cells not expressing ATP1B2) (UniProt P13637); experiment: binding of added retinoschisin to transfected cells, Western blot of washed cells; HEK293 cells 48 h after transfection incubated with recombinant retinoschisin (or RS1-R141H) for 1 h, intensive washing, Western blot of cell pellet lysates with anti-retinoschisin
[2] = target: Na/K-ATPase of ATP1A3 and ATP1B2 patch I region 1 mutant (UniProt P13637); experiment: as above
[3] = target: Na/K-ATPase of ATP1A3 and ATP1B2 patch I region 1+2+3 triple mutant (UniProt P13637); experiment: as above
[4] = target: Na/K-ATPase of ATP1A3 and ATP1B2 patch I region 1+2+3+4 quadruple mutant (UniProt P13637); experiment: as above
[5] = target: Na/K-ATPase of ATP1A3 and ATP1B2 patch I region 1+2+4 triple mutant (UniProt P13637); experiment: as above
[6] = target: Na/K-ATPase of ATP1A3 and ATP1B2 patch I region 1+3+4 triple mutant (UniProt P13637); experiment: as above
[7] = target: Na/K-ATPase of ATP1A3 and ATP1B2 patch I region 1+4 double mutant (UniProt P13637); experiment: as above
[8] = target: Na/K-ATPase of ATP1A3 and ATP1B2 patch I region 2 mutant (UniProt P13637); experiment: as above
[9] = target: Na/K-ATPase of ATP1A3 and ATP1B2 patch I region 2+3+4 triple mutant (UniProt P13637); experiment: as above
[10] = target: Na/K-ATPase of ATP1A3 and ATP1B2 patch I region 2+4 double mutant (UniProt P13637); experiment: as above
[11] = target: Na/K-ATPase of ATP1A3 and ATP1B2 patch I region 3 mutant (UniProt P13637); experiment: as above
[12] = target: Na/K-ATPase of ATP1A3 and ATP1B2 patch I region 3+4 double mutant (UniProt P13637); experiment: as above
[13] = target: Na/K-ATPase of ATP1A3 and ATP1B2 patch I region 4 mutant (UniProt P13637); experiment: as above
[14] = target: Na/K-ATPase of ATP1A3 and ATP1B2 patch II region 1 mutant (UniProt P13637); experiment: as above
[15] = target: Na/K-ATPase of ATP1A3 and ATP1B2 patch II region 3 mutant (UniProt P13637); experiment: as above
[16] = target: Na/K-ATPase of ATP1A3 and ATP1B2 patch II regions 1+3 double mutant (UniProt P13637); experiment: as above
[17] = target: Na/K-ATPase of ATP1A3 and ATP1B2-T240A (UniProt P13637); experiment: as above
[18] = target: Na/K-ATPase of ATP1A3 and ATP1B2-T240L (ATP1B2 patch II, region 4 mutant) (UniProt P13637); experiment: as above
[19] = target: Na/K-ATPase of ATP1A3 and ATP1B2-T240S (UniProt P13637); experiment: as above
[20] = target: Na/K-ATPase of ATP1A3 and glycosylation mutant ATP1B2-N118Q (UniProt P13637); experiment: as above
[21] = target: Na/K-ATPase of ATP1A3 and glycosylation mutant ATP1B2-N153Q (UniProt P13637); experiment: as above
[22] = target: Na/K-ATPase of ATP1A3 and glycosylation mutant ATP1B2-N159Q (UniProt P13637); experiment: as above
[23] = target: Na/K-ATPase of ATP1A3 and glycosylation mutant ATP1B2-N193Q (UniProt P13637); experiment: as above
[24] = target: Na/K-ATPase of ATP1A3 and glycosylation mutant ATP1B2-N197Q (UniProt P13637); experiment: as above
[25] = target: Na/K-ATPase of ATP1A3 and glycosylation mutant ATP1B2-N250Q (UniProt P13637); experiment: as above
[26] = target: Na/K-ATPase of ATP1A3 and glycosylation mutant ATP1B2-N96Q (UniProt P13637); experiment: as above
[27] = target: retinal Na/K-ATPase (ATP1A3 and ATP1B2) from transfected HEK293, enzymatically deglycosylated with PNGase F (UniProt P13637); experiment: binding of added retinoschisin to enriched membrane fractions, Western blot; enriched plasma membrane fractions (PNGase F or control buffer, 37°C, 18 h) incubated with recombinant retinoschisin for 1 h, intensive washing, centrifugation at 16,000xg for 15 min at 4°C, Western blot

binding [1]: no binding
binding [2]: binds
binding [3]: binds
binding [4]: no binding
binding [5]: no binding
binding [6]: no binding
binding [7]: binds
binding [8]: binds
binding [9]: no binding
binding [10]: binds
binding [11]: binds
binding [12]: no binding
binding [13]: binds
binding [14]: binds
binding [15]: binds
binding [16]: binds
binding [17]: no binding
binding [18]: no binding
binding [19]: binds
binding [20]: binds
binding [21]: binds
binding [22]: binds
binding [23]: binds
binding [24]: binds
binding [25]: binds
binding [26]: binds
binding [27]: binds
B1: retinoschisin (protein, UniProt O15537 24-224)
chain: STEDEGEDPWYQKACKCDCQGGPNALWSAGATSLDCIPECPYHKPLGFESGEVTPDQITCSNPEQYVGWYSSWTANKARLNSQGFGCAWLSKFQDSSQWLQIDLKEIKVISGILTQGRCDIDEWMTKYSVQYRTDERLNWIYYKDQTGNNRVFYGNSDRTSTVQNLLRPPIISRFIRLIPLGWHVRIAIRMELLECVSKCA

binding [1]: no binding
B2: retinoschisin mutant RS1-R141H (protein, UniProt O15537 24-224)
chain: STEDEGEDPWYQKACKCDCQGGPNALWSAGATSLDCIPECPYHKPLGFESGEVTPDQITCSNPEQYVGWYSSWTANKARLNSQGFGCAWLSKFQDSSQWLQIDLKEIKVISGILTQGHCDIDEWMTKYSVQYRTDERLNWIYYKDQTGNNRVFYGNSDRTSTVQNLLRPPIISRFIRLIPLGWHVRIAIRMELLECVSKCA
